# Assay results taken from the supplement of paper PMC8728848.
# Some of the results follow.
# B1: Gal 3 (Homo sapiens), P17931 (protein)
# chain: MADNFSLHDALSGSGNPNPQGWPGAWGNQPAGAGGYPGASYPGAYPGQAPPGAYPGQAPPGAYHGAPGAYPGAPAPGVYPGPPSGPGAYPSSGQPSAPGAYPATGPYGAPAGPLIVPYNLPLPGGVVPRMLITILGTVKPNANILDFQRGNDVAFHFNPRFNENNRRVIVCNTKLDNNWGREESQSVFPFESGKPFKIQVLVEPDHFKVAVNDAHLLQYNHRVKKLNEISKLGISGDIDLTSASYTMI
# What was measured:
# Assay in all cases: glycan array binding signal (z-score within array); higher = stronger binding
# Settings in all cases: glycan notation: IUPAC condensed, linker removed; mutation: R186S
# [1] = target: GalNAc(b1-3)Gal(a1-4)Gal(b1-4)GlcNAc
# Outline: (§1)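 From the Consortium for Functional Glycomics database, 3228 arrays were curated, keeping only those whose protein sequence was available. Binding is given as a within-array Z-score averaged across arrays sharing a protein sequence and across linkers. Negative Z-scores can be read as non-binding.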
# [2] = target: GalNAc(b1-3)Gal(a1-4)Gal(b1-4)GlcNAc(b1-3)Gal(b1-4)Glc
# Outline: as §1
# [3] = target: GalNAc(b1-3)Gal(a1-6)Gal(b1-4)Glc
# Outline: as §1
# GalNAc(b1-3)GalNAc = target: GalNAc(b1-3)GalNAc
# Outline: as §1
# GalNAc(b1-4)GlcNAc = target: GalNAc(b1-4)GlcNAc
# Outline: as §1
# [4] = target: GalNAc(b1-4)GlcNAc(b1-2)Man(a1-3)[GalNAc(b1-4)GlcNAc(b1-2)Man(a1-6)]Man(b1-4)GlcNAc(b1-4)GlcNAc
# Outline: as §1
# Glc(a1-4)Glc = target: Glc(a1-4)Glc
# Outline: as §1
# Glc(a1-6)Glc(a1-6)Glc = target: Glc(a1-6)Glc(a1-6)Glc
# Outline: as §1
# Glc(b1-4)Glc = target: Glc(b1-4)Glc
# Outline: as §1
# Glc(b1-6)Glc = target: Glc(b1-6)Glc
# Outline: as §1
# GlcA(b1-3)Gal = target: GlcA(b1-3)Gal
# Outline: as §1
# GlcA(b1-3)GlcNAc = target: GlcA(b1-3)GlcNAc
# Outline: as §1
# GlcA(b1-6)Gal = target: GlcA(b1-6)Gal
# Outline: as §1
# [5] = target: GlcNAc(a1-3)Gal(b1-4)GlcNAc
# Outline: as §1
# [6] = target: GlcNAc(a1-4)Gal(b1-3)GlcNAc
# Outline: as §1
# [7] = target: GlcNAc(a1-4)Gal(b1-4)GalNAc
# Outline: as §1
# [8] = target: GlcNAc(a1-4)Gal(b1-4)GlcNAc
# Outline: as §1
# [9] = target: GlcNAc(a1-4)Gal(b1-4)GlcNAc(b1-3)Gal(b1-4)Glc
# Outline: as §1
# [10] = target: GlcNAc(a1-4)Gal(b1-4)GlcNAc(b1-3)Gal(b1-4)GlcNAc
# Outline: as §1
# [11] = target: GlcNAc(a1-4)Gal(b1-4)GlcNAc(b1-3)Gal(b1-4)GlcNAc(b1-3)Gal(b1-4)GlcNAc
# Outline: as §1
# [12] = target: GlcNAc(a1-4)Gal(b1-4)GlcNAc(b1-3)Gal(b1-4)[Fuc(a1-3)]GlcNAc(b1-3)Gal(b1-4)[Fuc(a1-3)]GlcNAc
# Outline: as §1
# [13] = target: GlcNAc(a1-6)Gal(b1-4)GlcNAc
# Outline: as §1
# [14] = target: GlcNAc(b1-2)Gal(b1-3)GalNAc
# Outline: as §1
# [15] = target: GlcNAc(b1-2)Man(a1-3)[GlcNAc(b1-2)Man(a1-6)]Man(b1-4)GlcNAc(b1-4)GlcNAc
# Outline: as §1
# [16] = target: GlcNAc(b1-2)Man(a1-3)[GlcNAc(b1-2)Man(a1-6)]Man(b1-4)GlcNAc(b1-4)[Fuc(a1-6)]GlcNAc
# Outline: as §1
# [17] = target: GlcNAc(b1-2)[GlcNAc(b1-4)]Man(a1-3)[GlcNAc(b1-2)Man(a1-6)]Man(b1-4)GlcNAc(b1-4)GlcNAc
# Outline: as §1
# GlcNAc(b1-3)Gal = target: GlcNAc(b1-3)Gal
# Outline: as §1
# [18] = target: GlcNAc(b1-3)Gal(b1-3)GalNAc
# Outline: as §1
# GlcNAc(b1-3)Gal(b1-4)Glc = target: GlcNAc(b1-3)Gal(b1-4)Glc
# Outline: as §1
# [19] = target: GlcNAc(b1-3)Gal(b1-4)GlcNAc
# Outline: as §1
# [20] = target: GlcNAc(b1-3)Gal(b1-4)GlcNAc(b1-3)Gal(b1-4)GlcNAc
# Outline: as §1
# GlcNAc(b1-3)GalNAc = target: GlcNAc(b1-3)GalNAc
# Outline: as §1
# GlcNAc(b1-3)Man = target: GlcNAc(b1-3)Man
# Outline: as §1
# [21] = target: GlcNAc(b1-3)[GlcNAc(b1-4)][GlcNAc(b1-6)]GlcNAc
# Outline: as §1
# [22] = target: GlcNAc(b1-3)[GlcNAc(b1-6)]Gal(b1-4)GlcNAc
# Outline: as §1
# [23] = target: GlcNAc(b1-3)[GlcNAc(b1-6)]GalNAc
# Outline: as §1
# [24] = target: GlcNAc(b1-4)Gal(b1-4)GlcNAc
# Outline: as §1
binder,measurement,setting,value
B1,glycan array binding signal (z-score),[1],-0.051
same,glycan array binding signal (z-score),[2],-0.057
same,glycan array binding signal (z-score),[3],-0.068
same,glycan array binding signal (z-score),GalNAc(b1-3)GalNAc,-0.059
same,glycan array binding signal (z-score),GalNAc(b1-4)GlcNAc,-0.048
same,glycan array binding signal (z-score),[4],-0.023
same,glycan array binding signal (z-score),Glc(a1-4)Glc,-0.035
same,glycan array binding signal (z-score),Glc(a1-6)Glc(a1-6)Glc,-0.051
same,glycan array binding signal (z-score),Glc(b1-4)Glc,-0.088
same,glycan array binding signal (z-score),Glc(b1-6)Glc,-0.045
same,glycan array binding signal (z-score),GlcA(b1-3)Gal,-0.029
same,glycan array binding signal (z-score),GlcA(b1-3)GlcNAc,-0.067
same,glycan array binding signal (z-score),GlcA(b1-6)Gal,-0.057
same,glycan array binding signal (z-score),[5],-0.09
same,glycan array binding signal (z-score),[6],-0.043
same,glycan array binding signal (z-score),[7],-0.02
same,glycan array binding signal (z-score),[8],-0.059
same,glycan array binding signal (z-score),[9],-0.057
same,glycan array binding signal (z-score),[10],-0.043
same,glycan array binding signal (z-score),[11],-0.005
same,glycan array binding signal (z-score),[12],-0.02
same,glycan array binding signal (z-score),[13],-0.059
same,glycan array binding signal (z-score),[14],-0.074
same,glycan array binding signal (z-score),[15],-0.082
same,glycan array binding signal (z-score),[16],-0.012
same,glycan array binding signal (z-score),[17],-0.073
same,glycan array binding signal (z-score),GlcNAc(b1-3)Gal,-0.059
same,glycan array binding signal (z-score),[18],0.007
same,glycan array binding signal (z-score),GlcNAc(b1-3)Gal(b1-4)Glc,-0.053
same,glycan array binding signal (z-score),[19],-0.083
same,glycan array binding signal (z-score),[20],-0.086
same,glycan array binding signal (z-score),GlcNAc(b1-3)GalNAc,-0.069
same,glycan array binding signal (z-score),GlcNAc(b1-3)Man,-0.041
same,glycan array binding signal (z-score),[21],0.011
same,glycan array binding signal (z-score),[22],-0.081
same,glycan array binding signal (z-score),[23],-0.075
same,glycan array binding signal (z-score),[24],-0.083
